# Experimental data published in PubChem BioAssay (Tox21).
# This list was built around the results that the source calls inconclusive (neither active nor inactive); the mix of calls is not that of the screen. For part of these data: Where the call is inconclusive, the potency comes from a doubtful curve fit. The source made the active and inactive calls. Unless noted, the call rests on the fitted dose curve; in most records, active means well fitted curve in the direction sought with a large enough effect in the repeat runs; inconclusive means weak or mixed curves; inactive means no such curve, though single readings can be large; an effect the other way counts as inactive or inconclusive.
# Assays:
# [1] = qHTS assay to identify small molecule antagonists of the sonic hedgehog signaling (Shh) pathway (AID 1259369; calls by dose curve; further: nearly all actives have a fitted effect of over 45% in size; further: potency means the concentration at half of the fitted maximal effect; on activity change, negative = inhibition: on the % scale 0 is the no-effect control and ±100 the full control effect)
# In short: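 Conditioned medium drives Shh signalling in 3T3Gli1-Luc cells; compounds in DMSO co-applied, 24hr at 37 C, then luciferase luminescence.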
# [2] = qHTS assay to identify small molecule agonists of the androgen receptor (AR) signaling pathway in the presence of an antagonist - cell viability counter screen (AID 1259379); further: potency means the concentration at half of the fitted maximal effect; nearly all actives have a fitted effect of over 25% in size
# In short: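 A CellTiter-Fluor read-out measured viability of MDA-kb2 reporter cells (MMTV promoter with AR and GR response elements). Treatment: nilutamide 3.0uM final with compounds at 15 concentrations, 16 hr, 37C, 0% CO2.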
# [3] = molecular target: Estrogen receptor (Homo sapiens) (UniProt P03372); assay: qHTS assay to identify small molecule agonists of the estrogen receptor alpha (ER-alpha) signaling pathway in the presence of an antagonist (AID 1259383; calls by dose curve; further: top concentration of the series differs between compounds; on the % scale 0 is the no-effect control and ±100 the full control effect; nearly all actives have a fitted effect of over 15% in size)
# In short: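 Using VM7Luc4E2 cells seeded 24hr before treatment, antagonist ICI-182,780 (10.0nM final) was added, followed by compounds at 15 concentrations. Plates incubated 22hr; ONE-Glo luminescence quantified reporter activity.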
# [4] = qHTS assay to identify small molecule agonists of the estrogen receptor alpha (ER-alpha) signaling pathway in the presence of an antagonist - cell viability counter screen (AID 1259386);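 further: cells exposed to compounds for 22 h at 37 °C before the viability read; nearly all actives have a fitted effect of over 30% in size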; further: potency means the concentration at half of the fitted maximal effect
# In short: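 ICI-182,780 at 10.0nM final accompanies the compound titration (15 concentrations, 22hr, 37C) on VM7Luc4E2 cells. The CellTiter-Fluor fluorescence readout runs in the same wells as the luciferase assay.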
# [5] = qHTS assay to identify small molecule antagonists of the progesterone receptor (PR) signaling pathway - cell viability counter screen (AID 1346798); further: on the % scale 0 is the no-effect control and ±100 the full control effect; nearly all actives have a fitted effect of over 50% in size
# In short: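 Viability was determined by ATP-based luminescence (CellTiter-Glo) in PR-UAS-bla HEK293T cells cultured in 2% charcoal-stripped serum and incubated 16 hr with compounds under R5020 stimulation.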
# [6] = qHTS assay to identify small molecule agonists of the estrogen receptor beta (ER-beta) signaling pathway - cell viability counter screen (AID 1259380); further: nearly all actives have a fitted effect of over 30% in size; further: potency means the concentration at half of the fitted maximal effect
# In short: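 Cells used were ER-beta-UAS-bla HEK293T in medium with 2% charcoal-stripped FBS. They were treated for 16 hr at 37C. Viability came from CellTiter-Glo luminescence.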
# [7] = molecular target: Progesterone receptor (Homo sapiens) (UniProt P06401); assay: qHTS assay to identify small molecule agonists of the progesterone receptor (PR) signaling pathway (AID 1346784; calls by dose curve; further: potency means the concentration at half of the fitted maximal effect; nearly all actives have a fitted effect of over 30% in size); conditions: PR-UAS-bla HEK293T, beta-lactamase FRET ratio, 16 h; activation: at 92.4 µM (top of the series) unless noted
# In short: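 The screen uses PR-UAS-bla HEK 293T cells in charcoal-stripped serum (2%). Compounds are applied for 16 hr at 37C after a 6 hr pre-incubation, and reporter activity is detected with a FRET beta-lactamase substrate after 2 hr at room temperature.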
# [8] = molecular target: Progesterone receptor (Homo sapiens) (UniProt P06401); assay: qHTS assay to identify small molecule antagonists of the progesterone receptor (PR) signaling pathway (AID 1346795; active means well fitted inhibition curve with a large enough effect in the signal ratio in the repeat runs, not every such curve was filed as active; inconclusive means weak or mixed curves; the % refers to the signal ratio; further: potency means the concentration at half of the fitted maximal effect; on activity change, negative = inhibition: on the % scale 0 is the no-effect control and ±100 the full control effect); conditions: PR-UAS-bla HEK293T, beta-lactamase FRET ratio, 16 h; activity change, negative = inhibition: at 92.4 µM (top of the series) unless noted
# In short: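 After 6 hr plating at 37C in 2% stripped-serum medium, PR-UAS-bla HEK293T cells got compounds, then 1 nM R5020. Sixteen hours later, LiveBLAzer substrate was applied for 2 hr at room temperature and fluorescence was recorded.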
# [9] = qHTS assay to identify small molecule agonists of the TGF-beta/Smad signaling pathway (AID 1346859; active means well fitted activation curve with a large enough effect in the signal ratio in the repeat runs, not every such curve was filed as active; inconclusive means weak or mixed curves; the % refers to the signal ratio; further: potency means the concentration at half of the fitted maximal effect); conditions: SBE-bla HEK293T, TGF-beta/Smad beta-lactamase reporter, 5 h; activation: at 76.8 µM (top of the series)
# In short: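 Dual-wavelength fluorescence (460/530 nm emission) quantified beta-lactamase expression under the Smad binding element in HEK 293T cells following 5 hr compound treatment at 37 C.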
# [10] = qHTS assay to identify small molecule agonists of the progesterone receptor (PR) signaling pathway - cell viability counter screen (AID 1346799; calls by dose curve; further: nearly all actives have a fitted effect of over 45% in size; further: potency means the concentration at half of the fitted maximal effect)
# In short: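 Viability was scored by ATP luminescence (CellTiter-Glo, 30 min, room temperature) in the same wells used for the reporter readout, after 16 hr compound exposure of PR-UAS-bla HEK293T cells.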
# [11] = qHTS assay to identify small molecule antagonists of the estrogen receptor beta (ER-beta) signaling pathway - cell viability counter screen (AID 1259382); further: potency means the concentration at half of the fitted maximal effect; nearly all actives have a fitted effect of over 55% in size
# In short: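 Agonist-stimulated (1nM E2) ER-beta-UAS-bla HEK293T cells are incubated with library compounds for 16 hr at 37C. Cell viability is then assessed in the reporter-assay wells by adding CellTiter-Glo and reading luminescence after 30 min.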
# [12] = qHTS assay to identify small molecule agonists of the TGF-beta/Smad signaling pathway - cell viability counter screen (AID 1346829); further: potency means the concentration at half of the fitted maximal effect; nearly all actives have a fitted effect of over 45% in size
# In short: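 In parallel with the Smad reporter read, viability of HEK 293T cells stably carrying SBE-bla is quantified by ATP luminescence following 5 hr compound treatment.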
# Tags describe the fitted curve by direction and shape or compound fluorescence and quenching.
# UniProt P06401, sequence (P06401 whole entry, looked up): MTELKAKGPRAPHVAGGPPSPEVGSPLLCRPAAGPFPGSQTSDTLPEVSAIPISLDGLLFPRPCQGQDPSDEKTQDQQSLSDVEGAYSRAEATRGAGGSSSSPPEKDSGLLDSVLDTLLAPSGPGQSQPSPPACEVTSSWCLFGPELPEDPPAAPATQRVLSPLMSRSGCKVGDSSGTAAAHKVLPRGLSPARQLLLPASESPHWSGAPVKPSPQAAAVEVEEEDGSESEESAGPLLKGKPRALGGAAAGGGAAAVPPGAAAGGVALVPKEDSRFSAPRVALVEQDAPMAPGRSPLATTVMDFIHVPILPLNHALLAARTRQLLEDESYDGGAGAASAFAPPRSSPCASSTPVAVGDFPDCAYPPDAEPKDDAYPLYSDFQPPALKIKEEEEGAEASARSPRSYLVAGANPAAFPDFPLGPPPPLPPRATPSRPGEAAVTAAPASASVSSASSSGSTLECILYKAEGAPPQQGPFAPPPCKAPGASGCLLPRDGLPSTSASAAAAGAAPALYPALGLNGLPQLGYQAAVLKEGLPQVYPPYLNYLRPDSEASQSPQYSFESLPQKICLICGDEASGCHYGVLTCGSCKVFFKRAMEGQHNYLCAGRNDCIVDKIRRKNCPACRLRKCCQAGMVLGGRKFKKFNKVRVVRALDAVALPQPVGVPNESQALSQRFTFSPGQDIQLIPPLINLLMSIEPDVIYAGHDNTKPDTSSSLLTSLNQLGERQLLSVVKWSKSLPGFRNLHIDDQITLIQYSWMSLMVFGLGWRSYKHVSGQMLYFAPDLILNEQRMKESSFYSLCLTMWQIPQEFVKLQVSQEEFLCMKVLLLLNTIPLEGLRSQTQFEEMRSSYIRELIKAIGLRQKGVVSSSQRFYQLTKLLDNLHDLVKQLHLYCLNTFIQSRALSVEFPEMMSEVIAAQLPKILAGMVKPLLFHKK
# UniProt P03372, sequence (P03372 whole entry, looked up): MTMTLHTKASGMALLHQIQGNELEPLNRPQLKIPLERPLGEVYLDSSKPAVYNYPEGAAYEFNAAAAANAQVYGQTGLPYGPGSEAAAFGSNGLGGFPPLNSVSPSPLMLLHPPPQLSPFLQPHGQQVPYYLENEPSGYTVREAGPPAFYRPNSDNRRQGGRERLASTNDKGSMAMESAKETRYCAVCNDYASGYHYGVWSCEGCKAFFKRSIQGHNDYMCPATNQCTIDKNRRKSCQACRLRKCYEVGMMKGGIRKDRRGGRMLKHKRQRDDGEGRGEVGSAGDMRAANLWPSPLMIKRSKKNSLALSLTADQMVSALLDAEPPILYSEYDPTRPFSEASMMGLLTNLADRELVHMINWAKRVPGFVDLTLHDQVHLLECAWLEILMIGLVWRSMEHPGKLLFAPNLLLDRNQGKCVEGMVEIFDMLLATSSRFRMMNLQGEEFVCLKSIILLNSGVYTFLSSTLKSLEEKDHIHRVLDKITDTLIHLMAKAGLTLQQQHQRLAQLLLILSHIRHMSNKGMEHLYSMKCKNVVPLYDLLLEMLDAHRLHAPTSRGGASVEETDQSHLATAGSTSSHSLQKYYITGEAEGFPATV
smiles,measurement,setting,value
O=C1OC(CN2CCOCC2)CN1/N=C/c1ccc([N+](=O)[O-])o1 (stereo not drawn),Potency,[1],inconclusive: 33.5 µM [inhibitor]
same,Potency,[2],"inconclusive: 33.5 µM [cytotoxic, single point]"
same,Potency,[3],inactive
same,Potency,[4],inconclusive: 23.7 µM [cytotoxic]
same,Potency,[5],inactive
O=C(O)c1nc(Cl)c(Cl)c(Cl)c1Cl,Potency,[1],inconclusive: 15.4 µM [inhibitor]
same,Potency,[6],"inconclusive: 68.6 µM [cytotoxic, single point]"
same,Potency,[4],"inconclusive: 68.6 µM [rising, partial curve, poor fit]"
same,Potency,[7],"inconclusive: 34.4 µM [rising, partial curve]"
same,Potency,[8],"inconclusive: 54.5 µM [rising, partial curve]"
same,Potency,[9],"inconclusive: 11 µM [rising, full curve]"
CCCCCCCCOCCCN,Potency,[1],active: 30.6 µM
same,Potency,[6],"inconclusive: 27.3 µM [cytotoxic, partial curve]"
same,Potency,[4],"inconclusive: 6.11 µM [cytotoxic, single point]"
same,Potency,[10],"inconclusive: 15.4 µM [cytotoxic, full curve]"
COC(=O)Cc1cccc2ccccc12,Potency,[1],inactive
same,Potency,[6],"inconclusive: 3.44 µM [cytotoxic, partial curve, poor fit]"
c1ccc(-c2nc3ccccc3[nH]2)cc1,Potency,[1],"inconclusive: 43.3 µM [inhibitor, partial curve, poor fit]"
same,Potency,[6],"inconclusive: 38.6 µM [cytotoxic, partial curve]"
same,Potency,[11],"inconclusive: 48.6 µM [cytotoxic, partial curve, poor fit]"
same,"activity change, negative = inhibition",[8],inconclusive: -29.5%
same,Potency,[10],inactive
same,Potency,[12],"inconclusive: 49 µM [cytotoxic, partial curve, poor fit]"
CCCCCC/C=C/C=O,Potency,[1],inactive
same,Potency,[6],inactive
same,Potency,[4],inactive
same,Potency,[8],inactive
CO[C@@H]1[C@@H](O[C@@H]2O[C@H](C)[C@@H](O[C@H]3C[C@@](C)(O)[C@@H](O)[C@H](C)O3)[C@H](N(C)C)[C@H]2O)[C@@H](CC=O)C[C@@H](C)[C@@H](O[C@@H]2CC[C@H](N(C)C)[C@@H](C)O2)/C=C/C=C/C[C@@H](C)OC(=O)C[C@H]1OC(C)=O,Potency,[1],"inconclusive: 2.66 µM [inhibitor, full curve]"
same,Potency,[6],"inconclusive: 29.8 µM [cytotoxic, partial curve]"
same,Potency,[7],"inconclusive: 33.5 µM [rising, single point]"
same,"activity change, negative = inhibition",[8],inconclusive: 0.277% [at 42.5 µM]
same,Potency,[5],inactive
same,Potency,[10],"inconclusive: 29.8 µM [cytotoxic, single point]"
